Measured values: PMC4336329 (PLoS ONE, 2015)
Screen size: about 310,000 compounds; about 2,200 (0.71%) showed an effect of 50% or more. The effect is printed as a negative number. The list shows a part of the results.

The compounds below were run against human ether-à-go-go-related gene (hERG) potassium channel (human, UniProt Q12809) (assay: primary screen, population patch clamp on CHO cells stably expressing hERG).
human ether-à-go-go-related gene (hERG) potassium channel, sequence (Q12809 whole entry, looked up): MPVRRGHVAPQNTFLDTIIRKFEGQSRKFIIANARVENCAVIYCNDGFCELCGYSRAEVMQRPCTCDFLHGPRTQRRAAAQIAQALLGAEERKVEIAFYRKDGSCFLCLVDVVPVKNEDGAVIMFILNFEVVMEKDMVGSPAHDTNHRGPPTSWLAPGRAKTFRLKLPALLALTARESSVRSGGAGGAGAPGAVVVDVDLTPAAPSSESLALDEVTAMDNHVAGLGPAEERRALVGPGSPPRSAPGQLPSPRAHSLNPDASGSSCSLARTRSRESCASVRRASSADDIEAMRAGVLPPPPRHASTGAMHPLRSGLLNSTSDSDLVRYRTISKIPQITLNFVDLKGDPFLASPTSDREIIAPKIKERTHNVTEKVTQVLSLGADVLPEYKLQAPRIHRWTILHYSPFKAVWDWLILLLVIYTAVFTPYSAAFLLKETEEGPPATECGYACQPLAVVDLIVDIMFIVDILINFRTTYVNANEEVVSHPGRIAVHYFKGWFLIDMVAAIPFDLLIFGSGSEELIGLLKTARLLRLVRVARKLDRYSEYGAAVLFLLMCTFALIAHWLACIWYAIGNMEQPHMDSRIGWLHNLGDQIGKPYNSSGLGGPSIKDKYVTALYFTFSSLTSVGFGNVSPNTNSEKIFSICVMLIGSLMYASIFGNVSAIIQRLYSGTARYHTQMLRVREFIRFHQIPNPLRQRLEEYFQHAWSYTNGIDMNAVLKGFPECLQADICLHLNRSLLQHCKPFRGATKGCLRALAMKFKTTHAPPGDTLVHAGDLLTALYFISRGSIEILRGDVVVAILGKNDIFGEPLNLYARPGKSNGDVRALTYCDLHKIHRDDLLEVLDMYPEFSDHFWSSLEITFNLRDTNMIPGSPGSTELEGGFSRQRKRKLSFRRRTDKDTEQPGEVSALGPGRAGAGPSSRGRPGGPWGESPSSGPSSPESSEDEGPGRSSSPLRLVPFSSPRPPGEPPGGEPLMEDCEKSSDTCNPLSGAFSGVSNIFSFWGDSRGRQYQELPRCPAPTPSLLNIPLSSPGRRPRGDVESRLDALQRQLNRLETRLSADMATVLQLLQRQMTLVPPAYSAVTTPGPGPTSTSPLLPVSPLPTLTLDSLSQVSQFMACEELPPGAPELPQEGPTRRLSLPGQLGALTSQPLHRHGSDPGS

Compound	hERG current change (%, negative = inhibition) at 1uM [%]
COc1ccccc1CN1CC(C(=O)N(Cc2cnn(C)c2)C(C)C)CCC1=O (stereo not shown)	16.9
Cc1ccc(-c2cc(C(F)F)nc3sc4c(=O)[nH]cnc4c23)cc1	8.64
CNc1nc(N)c([N+](=O)[O-])c(N2CCCCCC2)n1	20
COc1ccc(NC(=O)CC23CC4CC(C2)CC(n2nnc(C)n2)(C4)C3)cc1	7.05
CS(=O)(=O)N1CCCC(C(=O)NCc2cccs2)C1 (stereo not shown)	1.1
O=C(Cc1c(Cl)cccc1Cl)N/N=C/c1cccnc1	15.8
C#Cc1ccc([C@H]2C=C(C(=O)N3CCN(Cc4ccc5c(c4)OCO5)CC3)O[C@@H](OCc3ccc(CO)cc3)C2)cc1	-1.37
CCCn1nc2cc(C(=O)NCCc3ccc(C)cc3)ccc2c1OCC	-6.88
O=C(O)C(=O)Nc1ccc(NC(=O)C(c2ccccc2)c2ccccc2)cc1	14.2
Oc1cccc(O)c1O	13.6
CC(=O)c1c(C)[nH]c(C(=O)OCC(=O)NCc2ccc3c(c2)OCO3)c1C	13.9
O=C(NCc1cccs1)c1cc(-c2ccccn2)nc2ccc(Br)cc12	14.9
O=C1OC2(CCCCC2)OC(=O)C1=CNc1ccc2c(c1)OCO2	6.14
Cc1nnnn1-c1ccc(CC(=O)O)cc1	6.17
CNC(=O)c1[nH]cnc1C(=O)NCC(=O)OC(C)(C)C	4.05
O=C(CSc1ccccc1)NN1C(=O)c2ccccc2C1=O	3.52
COCCNC(=S)N1CCC(NC(=O)C23CC4CC(CC(C4)C2)C3)CC1	9.6
COc1ccc(OC)c(C2C3=C(CCCC3=O)Nc3c2c(=O)n(C)c(=O)n3C)c1 (stereo not shown)	2.41
CCCCS(=O)CC(O)COCC (stereo not shown)	15.6
COc1ccc(-c2[nH]nc3c2C(c2ccccc2OC(=O)N2CCOCC2)C(C#N)=C(N)O3)cc1 (stereo not shown)	6.34
COc1ccc(CNC(=O)c2csc(Cc3ccccc3)n2)cc1	9
CCCOc1ccccc1OCC(=O)Nc1ccc(S(=O)(=O)N2CCCCC2)cc1	10.9

Compound	hERG current change (%, negative = inhibition) at 1uM [%]
CCc1ccc(C(=O)NNC(=O)c2ccc(=O)n(C)n2)cc1	17
C=C(C)CN(CC)C(=O)CN1C(=O)NC2(CCCc3ccccc32)C1=O (stereo not shown)	9.87
CC(Sc1nc(N)cc(=O)[nH]1)C(=O)Nc1nc2c(s1)CCCC2 (stereo not shown)	6.44
Cc1ccc(S(=O)(=O)CCC(=O)Nc2ccc3c(c2)OCO3)cc1	-8.83
Cc1cc(C)n2nc(SCC(=O)NC3CCCCC3C)nc2n1 (stereo not shown)	13.9
CC12CNCC(C)(CN(C3(O)C(=O)Nc4ccc(Br)cc43)C1)C2=O (stereo not shown)	11.6
O=C(NCc1cccs1)C(=O)NCC1OCCCN1S(=O)(=O)c1ccccc1 (stereo not shown)	6.88
C=CCn1c(Br)nc2c1c(=O)[nH]c(=O)n2C	-1.99
O=C1CCCc2nc3c(cc21)C(O)Oc1ccccc1-3 (stereo not shown)	4.74
Cc1cccc(NC(=O)CCn2ccnc2C)c1	4.57
CCCCCCn1c(C(C)O)nc2ccccc21 (stereo not shown)	-3.7
CCN(CC)S(=O)(=O)c1ccc(-c2nnc(SCC(N)=O)n2CC)cc1	20.4
COc1ccc(CCN2CC(C(=O)NCCc3ccccc3)CC2=O)cc1OC (stereo not shown)	12.9
CC(=O)c1c(C)nn(C(=O)N2CCOCC2)c1C	3.6
CCc1ccc2[nH]c(=O)c(CN(Cc3ccco3)C(=S)NCC3CCCO3)cc2c1 (stereo not shown)	3.57
Cc1nc(NC(=O)CC(C)C)sc1-c1csc(Nc2ccc(Cl)cc2Cl)n1	7.2
Cc1ccc(CN(C)C(=O)COc2ccc(S(=O)(=O)N3CCCC3)cc2[N+](=O)[O-])c(C)c1	9.34
Cc1cc(OC(C)C(=O)NCc2ccncc2)c2c(C)cc(=O)oc2c1 (stereo not shown)	-0.612
Cc1ccccc1N1CCN(C2CCCN(C(=O)CCN3CCCCO3)C2)CC1 (stereo not shown)	-5.43
Cc1cc(N(CCCl)CCCl)ccc1/C=N/N=C(\N)c1cnccn1	5.65
Cc1cc(C)n2nc(SCC(=O)N(CCC#N)c3ccc(F)cc3)nc2n1	6.78
CC1CCCC(NC(=O)CCCn2c(=O)[nH]c3cc(Cl)ccc3c2=O)C1C (stereo not shown)	12.7

Compound	hERG current change (%, negative = inhibition) at 1uM [%]
C=CCNc1nc(NCc2ccco2)nc(OCC)n1	5.62
CC1CN(C(=O)CCS(=O)(=O)c2ccccc2)CC(C)O1 (stereo not shown)	18.4
O=C(NCCN1CCCCCC1)C1CCC(CNS(=O)(=O)c2cccc3cccnc23)CC1 (stereo not shown)	0.919
CC(O)c1nc2ccccc2n1C(C)c1ccccc1 (stereo not shown)	15.5
CCNC(=O)COC(=O)CCNC(=O)c1cccc(C)c1	0.0285
N#C/C(=C\c1cn(CCOc2ccccc2)c2ccccc12)C(=O)NCC1CCCO1 (stereo not shown)	-1.18
Cc1ccc(N2CC(C(=O)OCC(=O)c3ccc[nH]3)CC2=O)cc1 (stereo not shown)	-0.975
O=C(/C=C/c1ccccc1)N1CCN(CCN2C(=O)c3cccc4cccc(c34)C2=O)CC1	1.77
O=C(O)c1ccccc1-c1cn2cc(Cl)ccc2n1	14.8
Cc1ccc(OCCCCN2CCc3ccccc3C2)c(C)c1.Cl	12.5
COc1cc(C(C(=O)NCc2ccccc2)N(C(=O)c2snc(C(N)=O)c2N)C2CCCC2)cc(OC)c1OC (stereo not shown)	0.544
CCN1C(c2ccccc2)=C(c2ccccc2)S/C1=C\C=C1/SC(=S)N(C)C1=O	14.9
Cc1ccc(NC(=S)N/N=C2/CCCc3c(C)cc(C)cc32)cc1	-14.1
Cc1ccc(CN(c2ccc(C(=O)Nc3cccnc3)cc2)S(C)(=O)=O)cc1	-1.43
O=C(C1CCC(C(=O)N2CCCCC2)CC1)N1CCCCC1 (stereo not shown)	13.8
CCNC(=S)N(Cc1ccccc1)Cc1nc2ccccc2c(=O)[nH]1	-4.75
COC(=O)c1sc(N)c(C(=O)OC)c1CSc1nnnn1C	-6.31
NC(=O)c1ccc(-c2nnn(CC(=O)N(C3CCCCC3)C3CCS(=O)(=O)C3)n2)cc1 (stereo not shown)	9.79
Cc1ccc(C(C)C)c(OCCN2CCc3ccccc3C2)c1.Cl	16.1
CCCOc1ccc(Cc2c(Cl)nc(SC)nc2NC)cc1	10.6
COc1ccc2cc(C#N)c(Nc3cccc(F)c3)nc2c1	11.7
Cc1ccc(NC(=S)N/N=C/c2c(C)nn(-c3ccccc3)c2N2CCCC2)cc1	16.3

Compound	hERG current change (%, negative = inhibition) at 1uM [%]
O=C(Oc1c(-c2ccccc2)c(=O)n2c3c(cccc13)CC2)c1cccc([N+](=O)[O-])c1	9.63
CCOC(=O)c1sc(N2N=C(C)/C(=C\c3ccc(OCC(=O)OC)cc3)C2=O)nc1C	19
Cc1ccc(NS(=O)(=O)c2ccc3c(c2)NC(=O)CCS3)c(Br)c1	8.73
O=S(=O)(/N=C(/Nc1ccc(F)cc1F)c1ccccc1)c1ccc(Br)cc1	8.34
O=C(O)c1ccc(NS(=O)(=O)c2cccc3nsnc23)cc1	5.69
Cc1ccc(CCCOC(=O)C[N+]2(C)CCCCC2)cc1.[I-]	3.78
O=C(Nc1ncc(Br)s1)C(Cc1ccccc1)n1cccc1 (stereo not shown)	11.5
Cc1nc2ccccc2c(=O)n1/N=C/c1ccc2ccccc2c1O	4.82
COc1ccccc1CNC(=O)c1sccc1-c1ccccc1	11.2
CN(Cc1nc(-c2cnccn2)no1)Cc1n[nH]c2c1CCCCC2	11.1
C=C1CCN([C@@H](CC(C)C)C(=O)NCc2ccco2)S(=O)(=O)c2ccccc21	9.17
COc1ccc(-c2noc(CN3C(=O)c4ccccc4C3=O)n2)cc1	2.83
CC(C)CNC(=S)N1CCC(NC(=O)c2ccco2)CC1	6.82
O=C(O)c1cc2nc(-c3ccccc3)cc(C(F)(F)F)n2n1	6.73
COC(=O)C1=C(C)N(CCc2ccc(OC)c(OC)c2)C(=O)/C1=C\c1ccc(O)cc1	6.71
Cc1cc(C(=O)CSc2nncs2)c(C)n1-c1ccc2c(c1)OCO2	9.18
CC(=O)C1=C(O)CC(c2ccccc2)CC1=NCCc1c(C)[nH]c2ccc(C)cc12 (stereo not shown)	-2.68
COc1ccc(OCC(O)CNC(=O)Nc2ccc(C(C)(C)C)cc2)cc1 (stereo not shown)	0.173
COc1cc(/C=C/C(=O)OCC(=O)N2CCC(C)CC2)ccc1O	5.87
COC(C(=O)Nc1ccnn1C1CCN(Cc2ccc(C)s2)CC1)c1ccccc1 (stereo not shown)	6.46
CCOC(=O)C1CCN(C(=O)COC(=O)c2ccc(=O)n(Cc3ccccc3)n2)CC1	0.035
Cc1cc(C)c(C)c(S(=O)(=O)N2CCN(CC(=O)c3c(N)n(Cc4ccccc4)c(=O)n(C)c3=O)CC2)c1C	0.288
